In PubChem BioAssay AID651820 (National Center for Advancing Translational Sciences (NCATS), 2012):
The campaign covered roughly 340,000 compounds. About 12,000 (3.5%) were called active. Inconclusive means that the source gave no clear call. Such entries were picked first, then a sample of the others. Calls follow the shape of the dose curve; as a rule, active = well fitted inhibition curve with a large enough effect; inconclusive = small, poorly fitted or top-dose-only effect, or another doubt; inactive = no such curve, though single readings can be large or run the other way. Potencies of inconclusive entries are left out as doubtful fits.

test: qHTS Assay for Inhibitors of Hepatitis C Virus (HCV); settings: Huh7.5.1 HCVcc-Cre (HCVcc is cell-culture hepatitis C virus) infection, luciferase reporter, 44 h; series mostly up to 41.8 µM
In short: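 Whole-lifecycle infectious HCVcc-Cre system; cells 1,000/well, compound then virus (~0.5 moi) added 4 h after plating, 44 h culture. Luciferase read 15 sec following 15 min substrate incubation, room temp.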
Potency is read from the fitted curve at half-maximal effect; tags tell the direction and shape of the fitted curve.

Compound | Potency
COc1cc2c(cc1OC)C(c1cccs1)N(C(=S)NC(C)C)CC2 (stereo unspecified) | inconclusive [inhibitor, single point]
CC1CCCN(CCCNC(=O)c2cc3c(s2)-c2ccccc2OC3)C1 (stereo unspecified) | active: 11.2 µM
COc1ccc(CNC(=O)CN(C(=O)c2cc3sccc3n2C)C2CCCC2)cc1 | inconclusive [inhibitor, single point]
CCc1cc(=O)oc2cc(C)c(CN3CCCC3)c(O)c12 | inconclusive [inhibitor, partial curve, poor fit]
N=c1c(C(=O)NCCc2ccccc2)cc2c(=O)n3ccccc3nc2n1Cc1ccco1 | inconclusive [inhibitor, full curve]
Cc1ccc(-c2c(NC(=O)C(C)C)n(C)c3ccccc3c2=O)cc1 | active: 3.16 µM
O=C(O)/C=C/C(=O)c1c(-c2ccccc2)[nH]c2ccccc12 | inactive
COc1cc(/C=N/NC(=O)c2cccc([N+](=O)[O-])c2)ccc1OCc1ccccc1 | inconclusive [inhibitor, partial curve]
Cn1c2ccccc2c2c(C(=O)N3CCN(c4ccccn4)CC3)cn(C3CCCC3)c(=O)c21 | inconclusive [inhibitor, single point]
O=C(Nc1ccc(Cl)cn1)c1ccc([N+](=O)[O-])o1 | inconclusive [inhibitor, single point]
COc1ccc(-c2cc(C(F)(F)F)nc(S(C)(=O)=O)n2)cc1 | inconclusive [inhibitor, single point]
CCN1CC(=O)Nc2cc(S(=O)(=O)N3CCOCC3)ccc21 | inactive
O=C(CCNC(=O)c1ccc([N+](=O)[O-])cc1)Nc1cc(Cl)ccc1N1CCOCC1 | inconclusive [inhibitor, full curve]
O=C(Nc1sc2c(c1C(=O)O)CCCC2)c1cccc(Cl)c1 | inactive
Fc1cccc(Nc2nc(-c3ccncc3)nc3ccccc23)c1 | inconclusive [inhibitor, full curve]
COCCNS(=O)(=O)c1cc(-c2nn(C)c(=O)c3ccccc23)ccc1C | inactive
CCCN1Cc2cccc(C(=O)NCc3cccs3)c2C1=O | inconclusive [inhibitor, partial curve]
CN(C)S(=O)(=O)c1cccc(NC(=O)COC(=O)c2ccc([N+](=O)[O-])o2)c1 | inactive
O=C(Nc1nnc(Cc2ccccc2)s1)C1CCN(C(=O)c2ccco2)CC1 | inactive
COc1cc2c(C(=O)NCc3ccc(C)o3)cn(CC(C)C)c(=O)c2cc1OC | inconclusive [inhibitor, single point]
CC(C)(C)c1csc(NC(=O)Cn2cnc3ccccc3c2=O)n1 | active: 14.1 µM
CC(C)CC1Nc2ncnc(N3CCN(c4ccccc4)CC3)c2N(Cc2ccc(Br)cc2)C1=O (stereo unspecified) | inconclusive [inhibitor, single point]
CCn1c(O)c(N=NC(=S)NCC2CCCO2)c2ccccc21 (stereo unspecified) | inconclusive [inhibitor, single point]
Cc1c(N=Cc2ccco2)c(=O)n(-c2ccccc2)n1C | inconclusive [inhibitor, single point]

Compound | Potency
CCCCNCc1cc(OCC)c(OCC)cc1Br | inconclusive [inhibitor, full curve]
Cc1ccccc1NC(=O)NCCCCc1ccccc1 | inconclusive [inhibitor, single point]
CC(=O)c1cccc(NC(=O)C2C3C=CC(C3)C2C(=O)O)c1 (stereo unspecified) | inactive
CCN(CC)CCn1c(NC(=O)c2ccc(Cl)cc2)nc2ccccc21 | inconclusive [inhibitor, single point]
COc1ccccc1/C=N/N1C(=O)C2C3C=CC(CC3)C2C1=O (stereo unspecified) | inactive
CCC1CCCCN1C(=O)CSc1nc2c([nH]c3ccccc32)c(=O)n1C (stereo unspecified) | inconclusive [inhibitor, single point]
CN(C)C(=O)c1ccc(-c2cc3onc(-c4ccccc4)c3c(=O)n2C)cc1 | active: 3.55 µM
COc1cccc(NC(=O)n2ncc3c(C)cccc32)c1 | inactive
CC1(C)CC(=O)C2=C(C1)OC(N)=C(C#N)C21CCN(C(=O)OCc2ccccc2)CC1 | inactive
Cc1ccc(/C=N/Nc2nncn2N)cc1 | inactive
CCCCNC(=S)NCc1ccc2c(c1)cc(C)n2C | inconclusive [inhibitor, single point]
Cc1ccc(N2C(=O)/C(=C\c3ccc(C(C)C)cc3)N=C2SC2CCOC2=O)cc1 (stereo unspecified) | inconclusive [inhibitor, partial curve]
CCCNC(=O)C1CC(=O)N(c2ccc(OCC(=O)Nc3cc(C)cc(C)c3)cc2)C1 (stereo unspecified) | inconclusive [inhibitor, partial curve]
CN(Cc1ccccc1)S(=O)(=O)c1ccc(OCC(=O)Nc2cccc([N+](=O)[O-])c2)cc1 | inactive
O=c1c2cc(NC(=S)N3CCCCCC3)ccc2nc2n1CCCCC2 | inconclusive [inhibitor, single point]
O=S(Cc1ccc(Br)cc1)Cc1nnc(SCc2c(F)cccc2Cl)n1-c1ccccc1 (stereo unspecified) | inconclusive [inhibitor, single point]
COc1ccc(-c2nc(Cn3c(SCc4ccccc4F)nc4ccncc43)c(C)o2)cc1 | inconclusive [inhibitor, single point]
CCN1CCN(CCNC(=O)c2ccc(/C=C3\Sc4ccccc4N(Cc4ccccc4F)C3=O)cc2)CC1 | active: 11.2 µM
CCN(CC)CCNC(=O)c1ccc(CS(=O)(=O)c2ccc(Br)cc2)o1 | inconclusive [inhibitor, single point]
O=C(Nc1ccsc1C(=O)NC1CCCCC1)c1ccc(F)cc1 | inactive
CCN(c1ccc(NC(=O)c2cccc(S(=O)(=O)N3CCN(C)CC3)c2)cc1)C(C)C | inconclusive [inhibitor, partial curve]
COc1ccc(CCCC(=O)NCC(=O)N/N=C/c2cc(Cl)ccc2OC)cc1 | inconclusive [inhibitor, single point]
c1csc(CCNc2ncnc3sc4c(c23)CCC4)c1 | active: 7.94 µM
NC(=O)c1sc2nc3c(c(-c4ccc(Cl)cc4)c2c1N)CCCC3 | inconclusive [inhibitor, single point]

Compound | Potency
COc1ccc(C)cc1NC(=O)c1ccc2c(SCC(=O)O)c3c(nc2c1)CCCC3 | inactive
CCOC(=O)c1cc2c(=O)n3ccccc3nc2n(Cc2ccc(Cl)cc2)c1=N | inconclusive [inhibitor, partial curve, poor fit]
Cc1ccc(-c2ccc(C(=O)NCc3ccccc3)o2)c2ccccc12 | inconclusive [inhibitor, single point]
COC(=O)C1=C(C)N(Cc2ccccc2)C(=NCc2ccc3c(c2)OCO3)N[C@H]1c1ccccc1 | inconclusive [inhibitor, single point]
COc1cccc(-c2nc(NCC3CCCO3)c3ccccc3n2)c1O (stereo unspecified) | inconclusive [inhibitor, partial curve, poor fit]
Cc1cccc(C(=O)N[C@H](C(=O)OCc2cc(=O)n3c(n2)sc2ccccc23)C(C)C)c1 | inconclusive [inhibitor, single point]
CC(C)(C)c1nc2ccc([N+](=O)[O-])cc2[nH]1 | inactive
CCOC(=O)C1=C(COC(=O)/C=C/c2ccc(OCC)c(OC)c2)NC(=O)NC1C (stereo unspecified) | inconclusive [inhibitor, partial curve]
CCOC(=O)C1C(C(=O)OC)=C(c2ccc(OC)cc2)c2ccccc2N1S(=O)(=O)C(F)(F)F (stereo unspecified) | active: 11.2 µM
Cn1nc(-c2ccc(OCC(=O)N3CCN(Cc4ccccc4)CC3)cc2)c2ccccc2c1=O | active: 6.31 µM
N#CC1c2ccccc2-n2nncc2CN1S(=O)(=O)c1ccc(Cl)cc1 (stereo unspecified) | inconclusive [inhibitor, single point]
CCCCCCn1c(=O)c(C(=O)Nc2cnccn2)c(O)c2ccccc21 | inconclusive [inhibitor, partial curve]
Cc1cc(NC(=O)c2ccc(F)cc2)n(-c2ccccn2)n1 | active: 8.91 µM
CCOC(=O)c1ccc(NS(=O)(=O)c2ccc3c(c2)n(C)c(=O)n3C)cc1 | inactive
CCN(CC)c1ccc(S(=O)(=O)N2CCOCC2)cc1NC(=O)Nc1ccccc1 | inconclusive [inhibitor, partial curve, poor fit]
CN1CCOc2cc(S(=O)(=O)Nc3ccc(F)cc3)ccc21 | inconclusive [inhibitor, single point]
Cc1oc(-c2cccc(Cl)c2)nc1CN1CCC(C(=O)NCC2CCCO2)CC1 (stereo unspecified) | inactive
COCCN(C(=O)C1CCN(C(=O)c2ccccc2C)CC1)c1c(N)n(CC(C)C)c(=O)[nH]c1=O | inactive
COc1cc2c(cc1OC)C1(CCCC1)C(N)=C2C#N | active: 3.16 µM
C[N+](C)(N)CCOC(=O)C(O)(c1ccccc1)C1CCCCC1 (stereo unspecified) | inactive
COc1cccc2c1OCC/C2=N\NC(=O)C(C)Oc1ccc([N+](=O)[O-])cc1 (stereo unspecified) | inconclusive [inhibitor, single point]
Cc1ccc(N(CC(=O)NCCc2ccccc2)C(=O)c2csnn2)cc1 | inactive
Cc1ccc(S(=O)(=O)NCCCNS(=O)(=O)c2ccc(C)cc2)cc1 | inconclusive [inhibitor, partial curve, poor fit]
